Reference: article PMC5472308, “Characterization of the regulation of a plant polysaccharide utilization operon and its role in biofilm formation in Bacillus subtilis” (PLoS ONE, 2017)

What was measured:
[1] = molecular target: T1, GanA (Bacillus subtilis, UniProt O07012); settings: 2.5 mM ONPG; Z buffer; ganA deletion abolishes activity
[2] = molecular target: T1, GanA; settings: 2.5 mM ONPG; Z buffer; putatively competitive; catalytic product; qualitative

T1 sequence (O07012 whole entry): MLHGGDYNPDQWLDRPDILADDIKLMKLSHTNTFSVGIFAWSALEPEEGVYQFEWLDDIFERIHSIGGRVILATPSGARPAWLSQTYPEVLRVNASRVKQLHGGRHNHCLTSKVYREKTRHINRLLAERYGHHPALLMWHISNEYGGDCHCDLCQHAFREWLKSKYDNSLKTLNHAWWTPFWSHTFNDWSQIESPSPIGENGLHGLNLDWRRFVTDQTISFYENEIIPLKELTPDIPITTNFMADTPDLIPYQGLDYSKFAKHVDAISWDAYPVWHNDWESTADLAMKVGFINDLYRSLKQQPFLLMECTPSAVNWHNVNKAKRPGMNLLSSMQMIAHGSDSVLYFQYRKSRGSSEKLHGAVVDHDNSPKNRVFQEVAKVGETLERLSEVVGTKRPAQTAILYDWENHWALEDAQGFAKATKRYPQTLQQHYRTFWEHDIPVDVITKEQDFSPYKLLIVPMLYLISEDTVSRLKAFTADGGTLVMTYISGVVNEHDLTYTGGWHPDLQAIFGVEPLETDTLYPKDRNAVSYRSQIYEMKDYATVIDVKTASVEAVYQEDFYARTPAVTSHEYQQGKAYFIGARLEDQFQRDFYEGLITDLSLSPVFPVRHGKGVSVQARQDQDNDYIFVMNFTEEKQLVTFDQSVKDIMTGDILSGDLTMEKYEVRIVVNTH

O=[N+]([O-])c1ccccc1O[C@@H]1O[C@H](CO)[C@H](O)[C@H](O)[C@H]1O [ONPG] was tested, and the “ONPG hydrolysis in cleared lysate, absorbance at 420 nm” value [1] was “The catalytic activity of GanA was assayed via ONPG hydrolysis”.
With OC[C@H]1OC(O)[C@H](O)[C@@H](O)[C@H]1O (some centres unmarked) [galactose] the “% activity with 2.5-20 mM galactose” value [2] was “the catalytic activity of GanA (in the cleared protein lysate) was strongly inhibited by addition of galactose”.
